Source: patent publication US20260116946A1, “NOVEL CD200 FUSION PROTEINS” (DUCENTIS BIOTHERAPEUTICS LIMITED, priority 2022, published 2026)

Key:
[1] = target: T1, Recombinant Human CD200R, His-tagged (Creative Biomart CD200R1-320H) (human, UniProt Q8TD46 27-266); assay: SPR (BIAcore), ARQ-234 captured via anti-human Fc, HuCD200R as analyte (5 concentrations, not given), 25 °C, 1:1 Binding fit; Run 2
T1 construct: His-tagged; also called human CD200 receptor
T1 sequence (looked up): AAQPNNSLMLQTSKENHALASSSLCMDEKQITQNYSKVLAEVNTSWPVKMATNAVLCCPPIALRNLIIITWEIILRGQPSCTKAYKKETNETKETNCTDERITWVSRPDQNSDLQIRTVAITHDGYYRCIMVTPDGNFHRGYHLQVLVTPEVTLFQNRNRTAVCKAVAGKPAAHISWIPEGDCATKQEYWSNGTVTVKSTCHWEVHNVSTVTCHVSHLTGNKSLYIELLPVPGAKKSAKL
Protocol: (§1) The experiments were performed on a GE Healthcare BIAcore T200. Human, cynomolgus and mouse CD200R proteins were purchased from Creative Biomart (CD200R1-320H, CD200R1-3483C, CD200R1-3280M). All measurements were performed in duplicate.
(§2) For human CD200 constructs: anti-human Fc (GE Healthcare) was covalently immobilized on a BIAcore CM5 sensor chip (Cytiva, BR100530) by amine coupling using a Cytiva kit (BR100839) following the manufacturer's instructions, targeting immobilization of 8,000-11,000 RU. CD200-Fc proteins were diluted to 0.5 μg/mL to 4 μg/mL in running Buffer (1×HBS-EP+pH7.4 (Cytiva BR100669), HEPES Buffered Saline pH 7.4 containing 3 mM EDTA and 0.05% v/v Surfactant P20) and flowed for 25 to 100 seconds at […] over the immobilized Anti-Human IgG Fc, with a stabilization time of 60 seconds. Between 35 and 250 RUs of CD200-Fc were captured, with higher RUs used for cynomolgus CD200R binding experiments. […] Analysis temperature was 25° C. This was followed by regeneration of the surface with 30-90 second pulse of 3M MgCl₂ flowed at 30 μL/min flow rate followed by stabilization of the surface with 60 second flow of running buffer.
(§3) For mouse CD200 constructs, muCD200R-Fc (Creative Biomart CD200R1-458M) diluted to 1 μg/mL in running buffer was flowed over the immobilized Anti-Human IgG Fc, with CD200 monomers serially diluted and flowed over captured CD200R. Other details were as above. Data analysis: experimental sensorgrams were analyzed in BIAevaluation software (GE Healthcare). The curves obtained were fitted to 1:1 Langmuir binding model by setting Rmax and RI as local parameters. Rate equations using standard parameters (e.g. ligand concentration, time) were used for iterative curve fitting. Closeness of fit was determined by algorithms provided by the manufacturer in the BIAevaluation software, and data accepted if the Chi² value was less than 10% of Rₘₐₓ, and the U value was less than or equal to 15.

[2] = target: T2, Recombinant Cyno CD200R, His-tagged (Creative Biomart CD200R1-3483C) (cynomolgus, UniProt G7NZT0 27-267); assay: SPR (BIAcore T200), CD200-Fc captured on anti-human Fc, cyno CD200R in solution, 25 C, mean of two runs
T2 construct: His-tagged; also called cynomolgus CD200R; cynomolgus CD200R1
T2 sequence: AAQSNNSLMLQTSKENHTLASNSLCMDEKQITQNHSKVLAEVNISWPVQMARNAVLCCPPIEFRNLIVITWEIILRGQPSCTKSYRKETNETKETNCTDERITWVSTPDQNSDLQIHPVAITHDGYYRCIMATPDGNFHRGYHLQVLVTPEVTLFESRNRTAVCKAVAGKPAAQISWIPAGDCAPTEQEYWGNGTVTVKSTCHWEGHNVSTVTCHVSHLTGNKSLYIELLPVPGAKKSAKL
Protocol: as §1, §2, §3

[3] = target: T1, Recombinant Human CD200R, His-tagged …; assay: SPR (BIAcore T200), CD200-Fc captured on anti-human Fc, human CD200R in solution, 25 C, mean of two runs
Protocol: as §1, §2, §3

[4] = target: T2, Recombinant Cyno CD200R, His-tagged …; assay: SPR (BIAcore T200), CD200-Fc captured on anti-human Fc, cyno CD200R in solution, 25 C
Protocol: as §1
(§4) For human CD200 constructs: anti-human Fc (GE Healthcare) was covalently immobilized on a BIAcore CM5 sensor chip (Cytiva, BR100530) by amine coupling using a Cytiva kit (BR100839) following the manufacturer's instructions, targeting immobilization of 8,000-11,000 RU. CD200-Fc proteins were diluted to 0.5 μg/mL to 4 μg/mL in running Buffer (1×HBS-EP+pH7.4 (Cytiva BR100669), HEPES Buffered Saline pH 7.4 containing 3 mM EDTA and 0.05% v/v Surfactant P20) and flowed for 25 to 100 seconds at […] over the immobilized Anti-Human IgG Fc, with a stabilization time of 60 seconds. […]
as §3, with “Other details were as above.” left out, “The curves obtained were fitted to 1:1 Langmuir binding model by setting Rmax and RI as local parameters. Rate equations using standard parameters (e.g. ligand concentration, time) were used for iterative curve fitting.” left out

[5] = target: T2, Recombinant Cyno CD200R, His-tagged …; assay: SPR (BIAcore), ARQ-234 captured via anti-human Fc, CynoCD200R as analyte (concentrations not given), 25 °C, 1:1 Binding fit; Run 2
Protocol: as §1, §2, §3

[6] = target: T3, human CD200R on U937-CD200R cells (full length human CD200R, lentiviral transduction) (human, UniProt Q8TD46 25-348); assay: flow cytometry on U937-CD200R cells, 37 °C, anti-human IgG secondary; panel 4 hours
T3 construct: whole, on cells; also called CD200R-expressing U937 cells
T3 sequence (looked up): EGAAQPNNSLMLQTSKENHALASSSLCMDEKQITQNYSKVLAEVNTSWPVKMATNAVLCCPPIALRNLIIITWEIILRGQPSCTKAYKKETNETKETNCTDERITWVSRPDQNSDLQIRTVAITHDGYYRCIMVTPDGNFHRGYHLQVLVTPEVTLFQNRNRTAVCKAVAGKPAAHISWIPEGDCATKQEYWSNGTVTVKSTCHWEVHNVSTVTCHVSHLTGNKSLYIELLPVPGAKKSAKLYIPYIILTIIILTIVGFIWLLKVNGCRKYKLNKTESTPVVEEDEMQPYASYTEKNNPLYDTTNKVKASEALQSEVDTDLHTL
Protocol: (§5) Treatment with CD200-Fc proteins (50 μL) was performed starting from 10 μg/mL with 3-fold dilutions up to 10 concentrations with FACS buffer and incubated for 1-hour, 4-hours and 24-hours at 37° C. At the end of each time point, cells were collected and washed. 10 μg/mL of anti-human secondary antibody was added and incubated for 30 minutes at 4° C. Cells were washed post incubation and stained to check viability (1 μL dye per million cells per mL 1×PBS) for 20 minutes at 4° C. Cells were washed and fixed with Fixation buffer (100 μL per test) at 4° C. for 20 minutes. Post incubation, cells were washed and the pellet was re-suspended in FACS buffer (100 μL per test) for data acquisition on the flow cytometer.
(§6) For the 24-hour time point, treatment with CD200-Fc protein was performed with cell culture media. Wash step=addition of 200 μL FACS buffer and centrifugation at 1400 RPM.

[7] = target: T1, Recombinant Human CD200R, His-tagged …; assay: SPR (BIAcore T200), CD200-Fc captured on anti-human Fc, human CD200R in solution, 25 C
Protocol: as §1, §4
as §3, with “Other details were as above.” left out, “The curves obtained were fitted to 1:1 Langmuir binding model by setting Rmax and RI as local parameters. Rate equations using standard parameters (e.g. ligand concentration, time) were used for iterative curve fitting.” left out

[8] = target: T1, Recombinant Human CD200R, His-tagged …; assay: SPR (BIAcore), ARQ-234 captured via anti-human Fc, HuCD200R as analyte (5 concentrations, not given), 25 °C, 1:1 Binding fit; Run 1
Protocol: as §1, §2, §3

[9] = target: T3, human CD200R on U937-CD200R cells (full …); assay: flow cytometry on U937-CD200R cells, 37 °C, cell culture media, anti-human IgG secondary; panel 24 hours
Protocol: as §5, §6

[10] = target: T1, Recombinant Human CD200R, His-tagged …; assay: SPR (BIAcore T200), CD200-Fc captured, human CD200R in solution
Protocol: as §1, §4
as §3, with “Other details were as above.” left out, “The curves obtained were fitted to 1:1 Langmuir binding model by setting Rmax and RI as local parameters. Rate equations using standard parameters (e.g. ligand concentration, time) were used for iterative curve fitting.” left out

[11] = target: T2, Recombinant Cyno CD200R, His-tagged …; assay: SPR (BIAcore), ARQ-234 captured via anti-human Fc, CynoCD200R as analyte (concentrations not given), 25 °C, 1:1 Binding fit; Run 1
Protocol: as §1, §2, §3

- Kd [2]: 252 nM
- koff [2]: 0.04 s⁻¹
- kon [2]: 159000 M⁻¹ s⁻¹
- t½ [4]: 0.283 min
- Kd [5]: 238 nM
- koff [5]: 0.0395 s⁻¹
- kon [5]: 166000 M⁻¹ s⁻¹
- Kd [11]: 266 nM
- koff [11]: 0.0405 s⁻¹
- kon [11]: 152000 M⁻¹ s⁻¹
B1: ARQ-234 (mutated CD200-Fc fusion protein; human CD200 K130Y, I131Y directly fused to IgG4 Fc S228P, M428L, N434S) (Fc fusion)
chain: QVQVVTQDEREQLYTPASLKCSLQNAQEALIVTWQKKKAVSPENMVTFSENHGVVIQPAYKDKINITQLGLQNSTITFWNITLEDEGCYMCLFNTFGFGYYSGTACLTVYVQPIVSLHYKFSEDHLNITCSATARPAPMVFWKVPRSGIENSTVTLSHPNGTTSVTSILHIKDPKNQVGKEVICQVLHLGTVTDFKQTVNKGPP[here human IgG4 Fc with changes without letters]
notes: also called mutant CD200-Fc
- Kd [1]: 2.02 nM
- koff [1]: 0.000448 s⁻¹
- kon [1]: 222000 M⁻¹ s⁻¹
- Kd [3]: 2.11 nM
- koff [3]: 0.000467 s⁻¹
- kon [3]: 222000 M⁻¹ s⁻¹
- EC50 (read off the curve) [6]: ~0.7 µg/mL
- t½ [7]: 24.6 min
- Kd [8]: 2.21 nM
- koff [8]: 0.000487 s⁻¹
- kon [8]: 221000 M⁻¹ s⁻¹
- EC50 (read off the curve) [9]: ~0.6 µg/mL
- fold greater affinity than wild-type CD200-Fc (DS-155) [10]: ~84 fold
